# Laboratory results: the supplement of paper PMC12350171
# How the values were obtained:
# [1] = tested on: Escherichia coli CFT073 (community: Com20); test: pathogen growth (luminescence or CFU) in drug-pretreated community relative to untreated community (fold of untreated control); higher = more pathogen expansion
# [2] = tested on: Klebsiella pneumoniae MKP103 (community: Com20); test: as above
# [3] = tested on: Shigella flexneri 24570 (community: Com20); test: as above
# [4] = tested on: Vibrio cholerae A1552 (community: Com20); test: as above
# [5] = tested on: Yersinia enterocolitica WA-314 (community: Com20); test: as above
# [6] = tested on: Yersinia pseudotuberculosis YPIII (community: Com20); test: as above
# [7] = tested on: Salmonella enterica Typhimurium in Com20; test: S. Typhimurium luminescence in drug-pretreated Com20 relative to untreated Com20 (fold of untreated control); higher = more pathogen expansion
# [8] = tested on: Salmonella enterica Typhimurium (community: Com21 (Com20 + E. coli ED1a)); test: pathogen growth (luminescence or CFU) in drug-pretreated community relative to untreated community (fold of untreated control); higher = more pathogen expansion
# [9] = tested on: Com20 synthetic gut community; test: Com20 community biomass OD578 after 24 h drug treatment relative to untreated (fraction of untreated control); higher = more community growth
# [10] = drug pretreatment concentration 10 µM
# [11] = drug pretreatment concentration 20 µM
# [12] = drug pretreatment concentration 40 µM
# [13] = drug pretreatment concentration 80 µM
# [14] = drug pretreatment concentration 100 µM
# [15] = drug pretreatment concentration 160 µM
# [16] = drug pretreatment concentration 2.5 µM
# [17] = drug pretreatment concentration 5 µM
smiles,measurement,setting,value
CN(C)CCCN1c2ccccc2Sc2ccc(Cl)cc21 [Chlorpromazine hydrochloride],pathogen growth,[1]; [10],1.37
same,pathogen growth,[1]; [11],1.51
same,pathogen growth,[1]; [12],2.07
same,pathogen growth,[1]; [13],4.05
same,pathogen growth,[1]; [14],5.6
same,pathogen growth,[2]; [10],0.966
same,pathogen growth,[2]; [11],1.36
same,pathogen growth,[2]; [12],1.79
same,pathogen growth,[2]; [13],2.9
same,pathogen growth,[2]; [14],3.43
same,pathogen growth,[3]; [10],1.71
same,pathogen growth,[3]; [11],1.44
same,pathogen growth,[3]; [12],1.55
same,pathogen growth,[3]; [13],2.48
same,pathogen growth,[3]; [14],3.25
same,pathogen growth,[4]; [10],0.991
same,pathogen growth,[4]; [11],1.24
same,pathogen growth,[4]; [12],0.714
same,pathogen growth,[4]; [13],1.45
same,pathogen growth,[4]; [14],1.56
same,pathogen growth,[5]; [10],1.3
same,pathogen growth,[5]; [11],1.21
same,pathogen growth,[5]; [12],0.959
same,pathogen growth,[5]; [13],0.831
same,pathogen growth,[5]; [14],0.953
same,pathogen growth,[6]; [10],2.19
same,pathogen growth,[6]; [11],2.61
same,pathogen growth,[6]; [12],1.58
same,pathogen growth,[6]; [13],0.902
same,pathogen growth,[6]; [14],0.753
CCN(CC)CCOc1ccc(C(=C(Cl)c2ccccc2)c2ccccc2)cc1 [Clomiphene],S. Typhimurium luminescence,[7]; [10],1.53
same,S. Typhimurium luminescence,[7]; [11],1.18
same,S. Typhimurium luminescence,[7]; [12],1.1
same,S. Typhimurium luminescence,[7]; [13],3.06
same,pathogen growth,[1]; [10],1.28
same,pathogen growth,[1]; [11],1.5
same,pathogen growth,[1]; [12],1.88
same,pathogen growth,[1]; [13],1.89
same,pathogen growth,[2]; [10],1.36
same,pathogen growth,[2]; [11],1.7
same,pathogen growth,[2]; [12],2.3
same,pathogen growth,[2]; [13],3.33
same,pathogen growth,[8]; [10],1.08
same,pathogen growth,[8]; [11],1.17
same,pathogen growth,[8]; [12],0.981
same,pathogen growth,[8]; [13],4.31
same,pathogen growth,[8]; [15],5.48
same,pathogen growth,[3]; [10],1.41
same,pathogen growth,[3]; [11],1.97
same,pathogen growth,[3]; [12],3.27
same,pathogen growth,[3]; [13],4.6
same,pathogen growth,[4]; [10],0.835
same,pathogen growth,[4]; [11],1.13
same,pathogen growth,[4]; [12],1.17
same,pathogen growth,[4]; [13],2.18
same,pathogen growth,[5]; [10],1.42
same,pathogen growth,[5]; [11],1.59
same,pathogen growth,[5]; [12],2.38
same,pathogen growth,[5]; [13],4.29
same,pathogen growth,[6]; [10],3.25
same,pathogen growth,[6]; [11],2.76
same,pathogen growth,[6]; [12],3.45
same,pathogen growth,[6]; [13],5.91
Clc1ccccc1C(c1ccccc1)(c1ccccc1)n1ccnc1 [Clotrimazole],Com20 community biomass OD578,[9]; [16],1.02
same,Com20 community biomass OD578,[9]; [17],1.02
same,Com20 community biomass OD578,[9]; [10],1.01
same,Com20 community biomass OD578,[9]; [11],0.983
same,Com20 community biomass OD578,[9]; [12],0.966
same,S. Typhimurium luminescence,[7]; [16],1.1
same,S. Typhimurium luminescence,[7]; [17],0.896
same,S. Typhimurium luminescence,[7]; [10],0.654
same,S. Typhimurium luminescence,[7]; [11],0.882
same,S. Typhimurium luminescence,[7]; [12],1.14
same,pathogen growth,[1]; [10],1.11
same,pathogen growth,[1]; [11],1.69
same,pathogen growth,[1]; [12],1.93
same,pathogen growth,[1]; [13],7.3
same,pathogen growth,[1]; [14],19.7
same,pathogen growth,[2]; [10],1.2
same,pathogen growth,[2]; [11],1.54
same,pathogen growth,[2]; [12],1.76
same,pathogen growth,[2]; [13],5.24
same,pathogen growth,[2]; [14],14.8
same,pathogen growth,[8]; [16],1.12
same,pathogen growth,[8]; [17],1.38
same,pathogen growth,[8]; [10],1.2
same,pathogen growth,[8]; [11],1.01
same,pathogen growth,[8]; [12],1.58
same,pathogen growth,[3]; [10],1.15
same,pathogen growth,[3]; [11],1.32
same,pathogen growth,[3]; [12],1.97
same,pathogen growth,[3]; [13],13.3
same,pathogen growth,[3]; [14],41.5
same,pathogen growth,[4]; [10],0.548
same,pathogen growth,[4]; [11],0.829
same,pathogen growth,[4]; [12],0.851
same,pathogen growth,[4]; [13],2.55
same,pathogen growth,[4]; [14],7.85
same,pathogen growth,[5]; [10],1.31
same,pathogen growth,[5]; [11],1.02
same,pathogen growth,[5]; [12],0.709
same,pathogen growth,[5]; [13],4.39
same,pathogen growth,[5]; [14],25.1
same,pathogen growth,[6]; [10],1.46
same,pathogen growth,[6]; [11],1.13
same,pathogen growth,[6]; [12],0.842
same,pathogen growth,[6]; [13],4.86
same,pathogen growth,[6]; [14],26.6
O=C1NCCN1CCN1CCC(c2cn(-c3ccc(F)cc3)c3ccc(Cl)cc23)CC1 [Sertindole],S. Typhimurium luminescence,[7]; [10],1.37
same,S. Typhimurium luminescence,[7]; [11],1.26
same,S. Typhimurium luminescence,[7]; [12],1.66
same,pathogen growth,[1]; [10],1.06
same,pathogen growth,[1]; [11],1.06
same,pathogen growth,[1]; [12],1.12
same,pathogen growth,[1]; [13],21.6
same,pathogen growth,[2]; [10],0.974
same,pathogen growth,[2]; [11],0.973
same,pathogen growth,[2]; [12],1.12
same,pathogen growth,[2]; [13],22.1
same,pathogen growth,[8]; [10],1.6
same,pathogen growth,[8]; [11],1.54
same,pathogen growth,[8]; [12],0.983
same,pathogen growth,[8]; [13],2.02
same,pathogen growth,[8]; [15],5.69
same,pathogen growth,[3]; [10],1.2
same,pathogen growth,[3]; [11],1.01
same,pathogen growth,[3]; [12],1.02
same,pathogen growth,[3]; [13],68.8
same,pathogen growth,[4]; [10],1.1
same,pathogen growth,[4]; [11],0.864
same,pathogen growth,[4]; [12],1.08
same,pathogen growth,[4]; [13],21.6
same,pathogen growth,[5]; [10],1.03
same,pathogen growth,[5]; [11],1.16
same,pathogen growth,[5]; [12],1.31
same,pathogen growth,[5]; [13],65.9
same,pathogen growth,[6]; [10],1.16
same,pathogen growth,[6]; [11],1.17
same,pathogen growth,[6]; [12],1.57
same,pathogen growth,[6]; [13],82.2
Nc1nc(=S)c2ncn([C@@H]3O[C@H](CO)[C@@H](O)[C@H]3O)c2[nH]1 [Thioguanosine],Com20 community biomass OD578,[9]; [16],1.01
same,Com20 community biomass OD578,[9]; [17],0.993
same,Com20 community biomass OD578,[9]; [10],1.03
same,Com20 community biomass OD578,[9]; [11],1.05
same,Com20 community biomass OD578,[9]; [12],1.02
same,S. Typhimurium luminescence,[7]; [16],1.3
same,S. Typhimurium luminescence,[7]; [17],0.93
same,S. Typhimurium luminescence,[7]; [10],0.923
same,S. Typhimurium luminescence,[7]; [11],0.751
same,S. Typhimurium luminescence,[7]; [12],0.701
same,pathogen growth,[8]; [16],1.07
same,pathogen growth,[8]; [17],1.09
same,pathogen growth,[8]; [10],1.04
same,pathogen growth,[8]; [11],1.06
same,pathogen growth,[8]; [12],1.25
O=C(O)Cc1cc(I)c(Oc2ccc(O)c(I)c2)c(I)c1 [Tiratricol],pathogen growth,[1]; [10],1.31
same,pathogen growth,[1]; [11],1.31
same,pathogen growth,[1]; [12],1.56
same,pathogen growth,[1]; [13],3.96
same,pathogen growth,[1]; [14],14.9
same,pathogen growth,[2]; [10],1.12
same,pathogen growth,[2]; [11],1.84
same,pathogen growth,[2]; [12],1.74
same,pathogen growth,[2]; [13],2.25
same,pathogen growth,[2]; [14],11.3
same,pathogen growth,[3]; [10],1.01
same,pathogen growth,[3]; [11],1.12
same,pathogen growth,[3]; [12],1.65
same,pathogen growth,[3]; [13],4.05
same,pathogen growth,[3]; [14],9.47
same,pathogen growth,[4]; [10],0.829
same,pathogen growth,[4]; [11],0.916
same,pathogen growth,[4]; [12],1.28
same,pathogen growth,[4]; [13],2.03
same,pathogen growth,[4]; [14],3.43
same,pathogen growth,[5]; [10],1.11
same,pathogen growth,[5]; [11],1.08
same,pathogen growth,[5]; [12],1.16
same,pathogen growth,[5]; [13],1.08
same,pathogen growth,[5]; [14],2.69
same,pathogen growth,[6]; [10],0.691
same,pathogen growth,[6]; [11],0.933
same,pathogen growth,[6]; [12],1.06
same,pathogen growth,[6]; [13],0.465
same,pathogen growth,[6]; [14],0.987

# Where a name gives a salt, the structure may show the parent alone. Synthetic gut communities (20 or 21 species) grown anaerobically with drug for 24 h at the dose given, then challenged with the named pathogen. Pathogen growth (luminescence, or colony counts for V. cholerae) or community OD578 as fold of untreated communities, mean of three; above 1 = more growth. No active / inactive call.
